# PubChem BioAssay AID662 (National Center for Advancing Translational Sciences (NCATS), 2007)
# Hit rate of the full screen: of about 71,000 compounds, about 1,800 (2.5%) were called active. The shares of active, inactive and inconclusive entries below differ from those in the screen. Calls follow the shape of the dose curve; as a rule, active = well fitted activation curve with a large enough effect in the signal ratio, with a control signal flat (not every such curve was filed as active); inconclusive = small, poorly fitted or top-dose-only effect, or effect the other way, or a change in a side signal; inactive = flat fitted curve, though single readings scatter; the % refers to the signal ratio. Potencies beside an inconclusive call are fits to weak or partial responses and may not hold up.
# Assay: Cell signaling CRE-BLA (Fsk stim); as to activity change, negative = inhibition: % of control where 0% means no effect
# Conditions: CHO CRE-bla reporter (cAMP response element driving beta-lactamase), forskolin EC10, beta-lactamase ratio
# In short: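 Titrated compounds plus EC10 NKH 477 on CHO CRE-bla cells, 3 h, 37 °C. CCF4, 2 h RT. Ratio 460/530 nm → AC50.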
# [1] = activity change, negative = inhibition: at 38.2 µM (top of the series) unless noted
# Potency is read from the fitted curve at half-maximal effect; tags tell the direction and shape of the fitted curve.
smiles,measurement,setting,value
O=C(Nc1ccc(F)cc1)C1CCCCC1,Potency,[1],inactive
Cc1nc(C)c(C(=O)C2=C(O)C(=O)N(CCN3CCOCC3)C2c2ccco2)s1 (stereo not drawn),Potency,[1],inactive
N=C(N)S/C=C\C(=O)O,"activity change, negative = inhibition",[1],inconclusive: 3.06%
COc1ccc(OC)c(S(=O)(=O)Nc2ccc(O)c(Sc3ncn[nH]3)c2)c1,Potency,[1],inactive
Cn1c(=O)oc2cc(S(=O)(=O)N3CCCC(C(=O)NCC4COc5ccccc5O4)C3)ccc21 (stereo not drawn),Potency,[1],inactive
COC(=O)[C@@]1(Cc2ccc(F)cc2)[C@H]2c3cc(C(=O)N(C)C)n(Cc4cc(C)n(C)n4)c3C[C@H]2CN1C(=O)c1ccccc1,"activity change, negative = inhibition",[1],inconclusive: -9.22%
Cc1cc(NC(=O)c2cnn3c(C(F)F)cc(C4CC4)nc23)no1,"activity change, negative = inhibition",[1],inconclusive: 7.29%
C=CCNc1oc(-c2ccc(OC)cc2)nc1C#N,Potency,[1],"inconclusive: 12.6 µM [rising, single point]"
C=CCNC(=O)C1CCCN(S(C)(=O)=O)C1 (stereo not drawn),"activity change, negative = inhibition",[1],inconclusive: -2.65%
O=C(CC(SCc1ccco1)c1ccc(O)cc1)c1cccs1 (stereo not drawn),"activity change, negative = inhibition",[1],inconclusive: -2.46%
O=C(O)C1C2C=CC(C2)C1C(=O)Nc1ccc(C(=O)N2CCCCC2)cc1 (stereo not drawn),"activity change, negative = inhibition",[1],inconclusive: -6.8%
CCOc1ccc(-c2noc(CCC(=O)NC)n2)cc1OCC,Potency,[1],"inconclusive: 12.6 µM [rising, single point]"
COc1ccc(-c2nn3cnnc3s2)cc1OC,Potency,[1],"inconclusive: 10 µM [rising, partial curve]"
Cc1c(C(=O)Nc2cnccn2)oc2ccccc12,"activity change, negative = inhibition",[1],inconclusive: 14.5%
COC(=O)C1=C(C)NC(C)=C(C(=O)OC)C1C(=O)OC1CCCCC1=O (stereo not drawn),"activity change, negative = inhibition",[1],inconclusive: -7.84%
O=C(Nc1ccncc1)c1cncc(Br)c1,Potency,[1],"inconclusive: 12.6 µM [falling, partial curve]"
Cc1nc2nc(SCC(=O)NCc3ccco3)nn2c(C)c1Cc1ccccc1,Potency,[1],inactive
Brc1ccc(CSc2nnc(Cc3c[nH]c4ccccc34)o2)cc1,"activity change, negative = inhibition",[1],inconclusive: -19%
O=C(NCc1ccco1)c1cnn2c(C(F)(F)F)cc(-c3ccccc3)nc12,Potency,[1],"inconclusive: 12.6 µM [rising, partial curve]"
Clc1ccccc1C1CC(c2ccccc2)Nc2ncnn21 (stereo not drawn),Potency,[1],inactive
CCCOc1cccc(C2/C(=C(/O)c3ccncc3)C(=O)C(=O)N2CCCN(C)C)c1 (stereo not drawn),Potency,[1],inactive
Cc1ccc(F)cc1NC(=O)c1c(-c2ccccc2)noc1C,Potency,[1],inactive
CCN(CC)CCOc1ncnc2c1oc1ccccc12,"activity change, negative = inhibition",[1],inconclusive: 24.8%
CCN(c1ccc(OC)cc1)S(=O)(=O)c1ccc2c(c1)CCN2C(=O)CCC(=O)O,"activity change, negative = inhibition",[1],inconclusive: 1.14%
COC(=O)CSc1nnc(CNC(=O)c2cccs2)n1-c1cccc(C)c1,"activity change, negative = inhibition",[1],inconclusive: 5.34%
CN(C)c1ccc(/C=C2/C(=O)Nc3ccccc32)cc1,"activity change, negative = inhibition",[1],inconclusive: -3.84%
same,"activity change, negative = inhibition",at 38.2 µM (top of the series),inactive: -2.37%
O=C(Nc1ccccc1)N1CCCC2(CCN(C(=O)c3cc(C(F)(F)F)cc(C(F)(F)F)c3)CC2)C1,"activity change, negative = inhibition",[1],inconclusive: -12%
CCN(CCNC(=O)C1CCN(S(=O)(=O)c2cccc3nsnc23)CC1)c1ccccc1,Potency,[1],"inconclusive: 10 µM [falling, single point]"
CC(SCC(=O)Nc1ccc(S(=O)(=O)N2CCCCC2)cc1)C(=O)O (stereo not drawn),Potency,[1],"inconclusive: 0.0794 µM [falling, single point]"
Cc1ccc(C(C#N)N2CCOCC2)cc1 (stereo not drawn),"activity change, negative = inhibition",[1],inconclusive: 1.6%
Cn1c(=O)[nH]c(=O)c2c1nc(N1CCCC1)n2CCCSc1nc2ccccc2o1,Potency,[1],"inconclusive: 5.01 µM [rising, partial curve]"
COc1ccc(C/C(O)=C(\C#N)c2nc3ccccc3[nH]2)cc1OC,Potency,[1],"inconclusive: 5.01 µM [rising, full curve, poor fit]"
O=C(NCc1ccco1)c1scc2c1OCCO2,"activity change, negative = inhibition",[1],inconclusive: -12.9%
CC(=O)Nc1ccc(NC(C)=O)s1,Potency,[1],inactive
CCc1cc2c(=O)c(-c3nc4ccccc4n3C)c(C)oc2c(CN2CCOCC2)c1O,"activity change, negative = inhibition",[1],inconclusive: -9.25% [at 7.6 µM]
COc1ccc(CC(=O)Nc2oc(-c3ccccc3)c(-c3ccccc3)c2C#N)cc1OC,Potency,[1],inactive
O=C1N(CN2CCC3(CC2)OCCO3)c2ccccc2C12OCCCO2,"activity change, negative = inhibition",[1],inconclusive: 10.2%
CCOC(=O)c1ccc(Nc2nnc3nc(C)cc(C)n23)cc1,Potency,[1],"inconclusive: 0.0251 µM [rising, full curve, poor fit]"
O=C(c1cnn2c(C(F)(F)F)cc(-c3ccco3)nc12)N1CCCc2ccccc21,"activity change, negative = inhibition",[1],inconclusive: 23% [at 7.6 µM]
Cc1ccc(C(=O)NC2CCS(=O)(=O)C2)cc1S(=O)(=O)N1CCOCC1 (stereo not drawn),"activity change, negative = inhibition",[1],inconclusive: 29.7%
Cc1nc2ccccc2c(=O)n1C1CCCCCC1,"activity change, negative = inhibition",[1],inconclusive: 28.1%
Cc1onc(-c2c(F)cccc2Cl)c1C(=O)OCC(=O)Nc1c(C)n(C)n(-c2ccccc2)c1=O,"activity change, negative = inhibition",[1],inconclusive: -21.4%
CC1(C)CC(n2c(NCCO)nc3c(c2=O)C2(CCCC2)Cc2ccccc2-3)CCO1 (stereo not drawn),Potency,[1],"inconclusive: 12.6 µM [rising, partial curve]"
CS(=O)(=O)N1CCC2(CCCN(C(c3ccccc3)c3ccccc3)C2)CC1,Potency,[1],"inconclusive: 10 µM [rising, partial curve]"
CCN1C(=O)c2cccc3c(S(=O)(=O)Nc4nc(C)cs4)ccc1c23,Potency,[1],active: 15.8 µM
CC1CCN(S(=O)(=O)N2CCC(C(=O)NCc3cccs3)CC2)CC1,Potency,[1],inactive
Cc1ccc2nc(CSc3nnc(Cc4cccs4)n3C3CCCCC3)cc(=O)n2c1,Potency,[1],"inconclusive: 1.26 µM [rising, single point]"
CCN(CC)S(=O)(=O)c1ccc(Cl)c(C(=O)OC)c1,"activity change, negative = inhibition",[1],inconclusive: -14.9% [at 7.6 µM]
CCOC(=O)CSC1=C(C#N)C(c2ccccc2OCC)C(C#N)C(=O)N1 (stereo not drawn),Potency,[1],"inconclusive: 10 µM [rising, single point]"
Cc1nn(C)c(C)c1S(=O)(=O)NC1CCCC1,"activity change, negative = inhibition",[1],inconclusive: 4.41%
O=C(c1cc(Cl)ccc1Cl)N1CCOCC1,Potency,[1],inactive
Cc1ccc(Cl)cc1-n1c(=O)cc(N2CC(C)OC(C)C2)[nH]c1=O (stereo not drawn),Potency,[1],"inconclusive: 12.6 µM [falling, partial curve, poor fit]"
